Results reported in the BET-seq Pho4 binding data (Le et al. 2018).
Some of the results follow. These are noisy estimates, calculated here from bound and input reads.

Biological target: T1, Pho4 (S. cerevisiae) (UniProt P07270)
T1 sequence: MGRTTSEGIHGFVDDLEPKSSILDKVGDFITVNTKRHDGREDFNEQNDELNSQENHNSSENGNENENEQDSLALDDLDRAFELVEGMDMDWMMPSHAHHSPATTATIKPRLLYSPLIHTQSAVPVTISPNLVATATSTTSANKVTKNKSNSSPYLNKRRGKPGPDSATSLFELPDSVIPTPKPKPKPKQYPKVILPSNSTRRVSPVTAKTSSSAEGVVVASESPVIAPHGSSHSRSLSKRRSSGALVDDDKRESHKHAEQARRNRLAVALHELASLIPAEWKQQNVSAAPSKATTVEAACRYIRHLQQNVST
Assay: relative binding free energy (BET-seq); higher = weaker binding
Settings: reference: library average

Sequence	relative binding free energy
ATAGTCACGTGAAGTG	0.837 kJ/mol
AGAGACACGTGGGTAA	0.126 kJ/mol
TGTTACACGTGAGTGC	0.418 kJ/mol
ACGTTCACGTGCTTGT	0.753 kJ/mol
ATAGGCACGTGACGTT	-0.711 kJ/mol
ACATTCACGTGGTATT	0.251 kJ/mol
AGTAGCACGTGTGATT	-0.209 kJ/mol
AAAAGCACGTGGGGTA	-0.711 kJ/mol
TGTTTCACGTGATGAG	1.21 kJ/mol
ATAATCACGTGGTATA	0.377 kJ/mol
GATTTCACGTGATTCG	1.21 kJ/mol
TGTCGCACGTGTTGGA	-0.335 kJ/mol
GAAGGCACGTGGTGTC	-1.09 kJ/mol
TGATTCACGTGGGTGT	0.669 kJ/mol
TAAGTCACGTGGTCAG	0.251 kJ/mol
TTTAGCACGTGGTTTC	-0.418 kJ/mol
GTGTACACGTGATTAG	1.63 kJ/mol
GTAGGCACGTGGTTCT	-0.251 kJ/mol
TGATTCACGTGGTTCT	1.67 kJ/mol
CCGGGCACGTGGAGTG	-1.09 kJ/mol
GATTCCACGTGTGGAG	1.51 kJ/mol
ACGGTCACGTGCTGTG	0.46 kJ/mol
AGAGACACGTGGAGGG	-0.209 kJ/mol
GGGAGCACGTGGGCGA	-0.46 kJ/mol
TACAGCACGTGTTGGG	-0.167 kJ/mol
ATCAGCACGTGGAGGG	-0.92 kJ/mol

Sequence	relative binding free energy
GGGCTCACGTGCGGTG	1.21 kJ/mol
TGGGACACGTGGTTAT	-0.0837 kJ/mol
GGTTGCACGTGGTGAT	0.293 kJ/mol
GGTAACACGTGCTTTT	0.293 kJ/mol
GGGTGCACGTGTAGTA	0.377 kJ/mol
ATGTTCACGTGGTGGT	0.837 kJ/mol
TAGTTCACGTGTTATC	1 kJ/mol
TTGTCCACGTGCGTGG	-0.251 kJ/mol
TTGAGCACGTGCAGGG	-0.293 kJ/mol
TACGCCACGTGGGTTG	-0.795 kJ/mol
GAAGGCACGTGGCGTA	-0.46 kJ/mol
TATTCCACGTGTTTTA	0.795 kJ/mol
GGGTTCACGTGATTCG	1.97 kJ/mol
ATGGGCACGTGGGCGT	-0.879 kJ/mol
GGGTTCACGTGGGAAC	1.55 kJ/mol
AGGGGCACGTGCAGTA	-0.669 kJ/mol
GGGTGCACGTGGTTTG	0.293 kJ/mol
TTAAGCACGTGCTTAT	-1.09 kJ/mol
AATTACACGTGGGTTT	0.293 kJ/mol
AGTTGCACGTGCGAGG	0 kJ/mol
TTACACACGTGGTGTA	-0.377 kJ/mol
TATCACACGTGTTAGT	0.126 kJ/mol
TAGTTCACGTGGTCGT	0.418 kJ/mol
TGCGGCACGTGACGTT	-0.293 kJ/mol
GGTTTCACGTGTTTTG	1.8 kJ/mol
AGCGACACGTGGGTGG	-0.711 kJ/mol

Sequence	relative binding free energy
GTGTTCACGTGCATGA	1.17 kJ/mol
ATTTGCACGTGATTGG	0.837 kJ/mol
TGGGTCACGTGCGAGA	0.293 kJ/mol
GTCGACACGTGGTTGT	0.962 kJ/mol
TTAGTCACGTGGGGCC	-0.0418 kJ/mol
AGAATCACGTGGGCTT	0.418 kJ/mol
GAACGCACGTGGTGAG	0.126 kJ/mol
AAGGACACGTGAGGCG	1.13 kJ/mol
TGTGTCACGTGTAAGA	0.251 kJ/mol
GGTGACACGTGGTCAT	0.377 kJ/mol
AGGTGCACGTGCCTGG	-0.502 kJ/mol
TGTAGCACGTGTGGCA	-0.46 kJ/mol
GGGGTCACGTGAGTGG	1.26 kJ/mol
ACTATCACGTGGTGGG	0 kJ/mol
GGAATCACGTGAGGGG	1.13 kJ/mol
GTACGCACGTGGTGTA	-0.586 kJ/mol
GGGATCACGTGTAATG	1 kJ/mol
GTGCGCACGTGAGGTA	0.795 kJ/mol
AAGGGCACGTGTGACT	-0.126 kJ/mol
CGTGGCACGTGGAGGA	-0.418 kJ/mol
GGGGACACGTGGAGTT	0.669 kJ/mol
GTGGTCACGTGGTCGC	0.879 kJ/mol
GTCTGCACGTGTGCTT	0.502 kJ/mol
TTTTCCACGTGAATTG	1.13 kJ/mol
ATAGTCACGTGAGAGT	0.753 kJ/mol
GGGTACACGTGAGGTC	1.42 kJ/mol

Sequence	relative binding free energy
GTTTACACGTGATTCT	1.46 kJ/mol
CGGAGCACGTGGCGGG	-0.879 kJ/mol
TGTGCCACGTGGTGAA	-0.418 kJ/mol
TGTTACACGTGGAGTG	0.126 kJ/mol
ATGGACACGTGGATGG	0.293 kJ/mol
CGAGTCACGTGTGTGC	0.92 kJ/mol
ACTTGCACGTGGAGGA	0.628 kJ/mol
AGGTTCACGTGTAAAA	1.8 kJ/mol
AAGTGCACGTGGATCG	-0.0837 kJ/mol
GGATTCACGTGATAGG	1.51 kJ/mol
AGTCGCACGTGCGTGG	-0.669 kJ/mol
AAGGGCACGTGGATAA	-0.377 kJ/mol
AGTATCACGTGGAGGA	0 kJ/mol
AATTGCACGTGGTCGA	-0.377 kJ/mol
CAGGTCACGTGTGTGG	0.377 kJ/mol
GGGGGCACGTGGATAT	-0.167 kJ/mol
TGCGGCACGTGTGGTT	0.544 kJ/mol
GATGCCACGTGGGTGA	-0.586 kJ/mol
AGATCCACGTGTGTGG	0.418 kJ/mol
TGGGGCACGTGGACAT	-0.251 kJ/mol
TGTTGCACGTGCGATT	0.544 kJ/mol
TGAAGCACGTGTAGTT	-0.126 kJ/mol
TTAATCACGTGTGACT	0.46 kJ/mol
TGAGTCACGTGTGTAA	0.377 kJ/mol
GTACTCACGTGTGGGT	1.05 kJ/mol
ACGGTCACGTGGATGG	0.544 kJ/mol

Sequence	relative binding free energy
ATGAGCACGTGGAGTT	0.167 kJ/mol
TCTAACACGTGTGTTA	0 kJ/mol
GCATTCACGTGTTTTT	1.05 kJ/mol
TCTTGCACGTGGAATT	0.544 kJ/mol
GTTTCCACGTGGAAGT	1.17 kJ/mol
CGGCGCACGTGGAGTG	-0.251 kJ/mol
GTGGGCACGTGTTGTC	-0.167 kJ/mol
CGTGGCACGTGAGAAG	0.795 kJ/mol
GGCCGCACGTGGAGGT	0.126 kJ/mol
GTTGTCACGTGTATTA	0.879 kJ/mol
AGTGTCACGTGGAGTA	0.251 kJ/mol
ATTTTCACGTGTTGAT	1.46 kJ/mol
AGTAGCACGTGCTGAG	-0.628 kJ/mol
TAGGTCACGTGAGACG	1.17 kJ/mol
ATGCACACGTGTGTGA	0.167 kJ/mol
TTATCCACGTGTTGGA	0.167 kJ/mol
GAATGCACGTGGGTGT	-0.335 kJ/mol
CTAGTCACGTGAAGGT	1.09 kJ/mol
AAAGGCACGTGGGGTT	-0.837 kJ/mol
GATAGCACGTGTGAGG	0.377 kJ/mol
TGTGCCACGTGGGTGC	-1.46 kJ/mol
GTAGGCACGTGGCAGT	-0.586 kJ/mol
TTTATCACGTGTAGCG	1.17 kJ/mol
GATTCCACGTGGGTTA	0 kJ/mol
GTACGCACGTGTTGGA	-0.293 kJ/mol
GGGTCCACGTGCGGTA	-0.0837 kJ/mol

Sequence	relative binding free energy
GAAGGCACGTGTGTTT	0.293 kJ/mol
GTGTTCACGTGGATCA	1.17 kJ/mol
CGTGGCACGTGTCCGG	-0.586 kJ/mol
TGATGCACGTGGCGGC	-0.293 kJ/mol
TGGAACACGTGTCTTT	0.711 kJ/mol
TATGTCACGTGGTAGG	0.167 kJ/mol
GGGTACACGTGGTAAG	-0.167 kJ/mol
CGGGTCACGTGGGGGC	-0.293 kJ/mol
TGGGTCACGTGAATAG	1.21 kJ/mol
TTGATCACGTGGTGTT	0.586 kJ/mol
CTTGGCACGTGCTTTT	-1 kJ/mol
TTTTGCACGTGAGCGC	0.837 kJ/mol
TGTGACACGTGGGTGC	-0.251 kJ/mol
TTAGGCACGTGGGGTT	-0.669 kJ/mol
TTGGGCACGTGCGCGC	-1.26 kJ/mol
AATGGCACGTGGACGT	-0.92 kJ/mol
GCTTTCACGTGTTGTT	1.67 kJ/mol
TTGTGCACGTGAGTCG	0.628 kJ/mol
TGTTCCACGTGGTCTT	0.167 kJ/mol
TGTGCCACGTGTAAGG	-0.0418 kJ/mol
TGTCGCACGTGTAGAA	0.544 kJ/mol
CGCGGCACGTGGGTTT	-0.879 kJ/mol
TCTTTCACGTGTGCTT	0.669 kJ/mol
GGGGGCACGTGTCTGG	-0.46 kJ/mol
AGTATCACGTGCGTGG	0.209 kJ/mol
TTTGACACGTGTGTGC	0.544 kJ/mol

Sequence	relative binding free energy
TTATGCACGTGAACGT	0.167 kJ/mol
TTATGCACGTGTGTCA	-1.17 kJ/mol
GGTTACACGTGCGTTG	0.377 kJ/mol
TAAGACACGTGCGGAT	0.335 kJ/mol
AGTTACACGTGGGCCG	-0.0418 kJ/mol
TTTCTCACGTGGTGTT	0.669 kJ/mol
GGCAGCACGTGGATTG	-0.209 kJ/mol
TATGGCACGTGTACGG	-0.293 kJ/mol
TGAGCCACGTGGTGCT	-0.418 kJ/mol
GGATGCACGTGTTTGC	0.335 kJ/mol
ATTGACACGTGCGGAT	0.628 kJ/mol
TTTAGCACGTGGATTC	0.293 kJ/mol
GAGGGCACGTGGGAAA	-0.167 kJ/mol
TCGGTCACGTGGGGTG	-0.418 kJ/mol
CATGGCACGTGGAGTA	-0.92 kJ/mol
CTTATCACGTGGTTGG	0.377 kJ/mol
CATTGCACGTGATGAT	0.167 kJ/mol
GACTTCACGTGGTGCT	1.51 kJ/mol
TAGTTCACGTGGTAGT	0.962 kJ/mol
CGCTGCACGTGGGGGC	-0.795 kJ/mol
TTTGCCACGTGTTTCG	-0.0837 kJ/mol
AAAGTCACGTGTGAAG	1.09 kJ/mol
GGGCACACGTGTGGGT	0.92 kJ/mol
ACTGGCACGTGTCGGG	-0.502 kJ/mol
GCGGTCACGTGTGAGT	0.669 kJ/mol
CGGGCCACGTGGGCGG	-1.3 kJ/mol

Sequence	relative binding free energy
CATGTCACGTGAGTTG	1.17 kJ/mol
GGTGGCACGTGAACAG	1.05 kJ/mol
TGTGTCACGTGTTTGA	0.126 kJ/mol
GGTGTCACGTGTAATA	1.3 kJ/mol
TCGGTCACGTGAAGTT	1.38 kJ/mol
TAAATCACGTGCGTGT	0.293 kJ/mol
CGTTACACGTGTTTTG	0.0418 kJ/mol
TTTTACACGTGTGGGA	0.711 kJ/mol
ATGGTCACGTGGATGT	0.502 kJ/mol
TGGGTCACGTGTAAAA	0.879 kJ/mol
ATTTGCACGTGTGCCG	0.167 kJ/mol
TGCCTCACGTGTAGGT	0.669 kJ/mol
GGGGGCACGTGTTCGA	0.0837 kJ/mol
AGATTCACGTGATATG	1.26 kJ/mol
TATGGCACGTGGCTGG	-0.418 kJ/mol
TTGGGCACGTGTAGAG	0.126 kJ/mol
TGTGTCACGTGCGTTT	-0.167 kJ/mol
TCTTTCACGTGTTTCG	1.38 kJ/mol
ATAGGCACGTGTTGCA	-0.418 kJ/mol
ATGGACACGTGGTTCG	-0.586 kJ/mol
TGGTACACGTGTGGTA	0.46 kJ/mol
TGCTTCACGTGTGTGA	0.377 kJ/mol
TGTGTCACGTGAATCA	0.879 kJ/mol
GCTCTCACGTGTTGTG	0.879 kJ/mol
TATGGCACGTGTGCAA	-0.377 kJ/mol
CGAGCCACGTGTGGTG	-0.209 kJ/mol

Sequence	relative binding free energy
TATAACACGTGGAGGG	-0.628 kJ/mol
TTAGTCACGTGACAAG	1.09 kJ/mol
CGTGGCACGTGTATTT	0.126 kJ/mol
TAGCGCACGTGTGTTG	-0.335 kJ/mol
AAGGCCACGTGATGTG	0.293 kJ/mol
TAGAACACGTGGTTTG	-0.0418 kJ/mol
TTATTCACGTGACATG	0.669 kJ/mol
CTAGGCACGTGGGGGG	-1.21 kJ/mol
TAGGACACGTGTATTG	-0.167 kJ/mol
ATGTTCACGTGTGTCG	1.17 kJ/mol
AGCTGCACGTGATTTG	0.335 kJ/mol
GTGTACACGTGGGTAC	-0.502 kJ/mol
GGGGACACGTGTCAGG	-0.167 kJ/mol
AAGGGCACGTGGCAAG	-0.92 kJ/mol
ATTTGCACGTGCGAGG	-0.293 kJ/mol
TCAAGCACGTGTGCGG	-0.167 kJ/mol
TGCGGCACGTGAGGAG	0.879 kJ/mol
GGAATCACGTGCGTTA	1 kJ/mol
AATGACACGTGAAAGG	1.67 kJ/mol
AAGTTCACGTGTCAGT	1.34 kJ/mol
GTCGGCACGTGGGCAT	-0.126 kJ/mol
ATGCTCACGTGTGTTG	0.167 kJ/mol
